Test results reported in the supplement of paper PMC4604168 (melanoma cell lines).
The other results are listed elsewhere or left out. Single values are uncertain, as repeats are few or missing.

system: COLO829; experiment: cell count relative to DMSO control; melanoma cells; higher = more viable cells; conditions: library dose: low library concentration; 72 h
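Also: cell number obtained by counting DAPI-stained nuclei in high-throughput microscope images with image analysis software, screen run in 1,536-well plates.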

Row | Compound | cell count [%]
1 | Cn1cc(C2=C(c3cn(C4CCN(Cc5ccccn5)CC4)c4ccccc34)C(=O)NC2=O)c2ccccc21 [Enzastaurin] + CO[C@H]1C[C@@H]2CC[C@@H](C)[C@@](O)(O2)C(=O)C(=O)N2CCCC[C@H]2C(=O)O[C@H]([C@H](C)C[C@@H]2CC[C@@H](OCCO)[C@H](OC)C2)CC(=O)[C@H](C)/C=C(\C)[C@@H](O)[C@@H](OC)C(=O)[C@H](C)C[C@H](C)/C=C/C=C/C=C/1C [everolimus] (first compound 0.8 µM, partner dose 0.02 µM) | 77.5
2 | C[C@]12O[C@H](C[C@]1(O)CO)n1c3ccccc3c3c4c(c5c6ccccc6n2c5c31)CNC4=O [Lestaurtinib] + Nc1cccc2c1CN(C1CCC(=O)NC1=O)C2=O [lenalidomide] (first compound 0.004 µM, partner dose 1 µM) | 102
3 | C[C@]12O[C@H](C[C@]1(O)CO)n1c3ccccc3c3c4c(c5c6ccccc6n2c5c31)CNC4=O [Lestaurtinib] + CN(c1ncccc1CNc1nc(Nc2ccc3c(c2)CC(=O)N3)ncc1C(F)(F)F)S(C)(=O)=O [PF562271] (first compound 0.004 µM, partner dose 0.08 µM) | 73.5
4 | C[C@]12O[C@H](C[C@]1(O)CO)n1c3ccccc3c3c4c(c5c6ccccc6n2c5c31)CNC4=O [Lestaurtinib] + CC(=O)O[C@@]12CO[C@@H]1C[C@H](O)[C@@]1(C)C(=O)[C@H](O)C3=C(C)[C@@H](OC(=O)[C@H](O)[C@@H](NC(=O)OC(C)(C)C)c4ccccc4)C[C@@](O)([C@@H](OC(=O)c4ccccc4)[C@H]21)C3(C)C [Docetaxel] (first compound 0.004 µM, partner dose 0.0001 µM) | 66.5
